# Laboratory results reported in PubChem BioAssay AID1347165 (National Center for Advancing Translational Sciences (NCATS), 2019).
# Hit rate of the full screen: of about 220,000 compounds, about 5,700 (2.6%) were called active. This list was built around the results that the source calls inconclusive (neither active nor inactive); the mix of calls is not that of the screen. Calls follow the shape of the dose curve; as a rule, active = well fitted inhibition curve with a large enough effect; inconclusive = small, poorly fitted or top-dose-only effect; inactive = no such curve, though single readings can be large or run the other way. A potency beside an inconclusive call is a rough fit, not a confirmed value.
# Target: Lysine-specific demethylase 5B (Homo sapiens) (UniProt Q9UGL1)
# Chain of UniProt Q9UGL1 (Q9UGL1 whole entry, looked up): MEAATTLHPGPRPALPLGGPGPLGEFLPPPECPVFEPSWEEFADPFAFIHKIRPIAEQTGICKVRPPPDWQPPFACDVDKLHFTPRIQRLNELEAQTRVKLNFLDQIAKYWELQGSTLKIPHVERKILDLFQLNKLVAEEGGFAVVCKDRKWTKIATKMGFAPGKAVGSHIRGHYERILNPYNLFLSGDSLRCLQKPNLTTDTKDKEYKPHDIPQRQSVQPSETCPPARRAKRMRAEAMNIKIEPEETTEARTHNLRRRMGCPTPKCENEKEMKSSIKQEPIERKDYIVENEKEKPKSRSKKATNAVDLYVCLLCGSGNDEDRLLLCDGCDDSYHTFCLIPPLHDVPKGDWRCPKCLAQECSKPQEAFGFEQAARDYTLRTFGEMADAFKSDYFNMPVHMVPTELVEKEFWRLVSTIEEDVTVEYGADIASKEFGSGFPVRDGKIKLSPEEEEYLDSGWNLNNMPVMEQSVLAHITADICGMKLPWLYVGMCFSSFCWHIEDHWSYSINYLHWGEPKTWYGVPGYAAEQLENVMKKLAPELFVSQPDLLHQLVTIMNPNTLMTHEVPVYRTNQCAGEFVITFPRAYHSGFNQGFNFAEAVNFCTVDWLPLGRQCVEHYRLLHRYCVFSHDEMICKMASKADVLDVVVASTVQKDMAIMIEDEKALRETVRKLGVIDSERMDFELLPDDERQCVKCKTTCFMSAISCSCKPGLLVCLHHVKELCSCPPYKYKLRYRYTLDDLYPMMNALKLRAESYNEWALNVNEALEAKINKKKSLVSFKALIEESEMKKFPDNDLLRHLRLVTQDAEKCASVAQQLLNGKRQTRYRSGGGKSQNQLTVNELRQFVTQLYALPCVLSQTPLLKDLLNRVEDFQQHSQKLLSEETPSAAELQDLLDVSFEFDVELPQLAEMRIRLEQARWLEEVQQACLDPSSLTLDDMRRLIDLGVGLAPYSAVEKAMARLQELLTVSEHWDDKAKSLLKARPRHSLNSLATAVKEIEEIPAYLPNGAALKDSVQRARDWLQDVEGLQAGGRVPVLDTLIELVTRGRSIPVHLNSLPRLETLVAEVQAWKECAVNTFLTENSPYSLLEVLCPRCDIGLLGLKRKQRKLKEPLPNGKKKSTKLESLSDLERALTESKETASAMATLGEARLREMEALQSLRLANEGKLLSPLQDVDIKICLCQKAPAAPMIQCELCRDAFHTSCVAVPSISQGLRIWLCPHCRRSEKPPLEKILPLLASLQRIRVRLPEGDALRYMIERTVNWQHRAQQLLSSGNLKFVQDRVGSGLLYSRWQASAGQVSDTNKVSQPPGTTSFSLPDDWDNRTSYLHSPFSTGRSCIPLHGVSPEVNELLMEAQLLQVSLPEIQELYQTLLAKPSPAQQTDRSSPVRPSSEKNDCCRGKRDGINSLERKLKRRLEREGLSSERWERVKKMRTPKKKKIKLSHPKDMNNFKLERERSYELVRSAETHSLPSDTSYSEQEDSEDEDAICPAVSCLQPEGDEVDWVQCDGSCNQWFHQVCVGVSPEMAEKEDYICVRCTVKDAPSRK
# Test: Primary screen for KDM5B Histone Demethylases FDH-coupled qHTS; also: nearly all actives have a fitted effect of over 70% in size; as to activity change, negative = inhibition: 0% is about no effect
# Details: FDH-coupled NADH fluorescence (FDH is formaldehyde dehydrogenase); activity change, negative = inhibition: at 57.7 µM (top of the series) unless noted
# How it was run: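 Inhibition is measured as reduced NADH fluorescence generation from FDH coupling to formaldehyde release. Truncated KDM5BΔAP at 200 nM final acts on H3K4me3 peptide (12.5 µM in substrate mix) in pH 7.5 HEPES buffer with Tween-20, 30 min, room temperature.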
# Potency is read from the fitted curve at half-maximal effect; tags tell the direction and shape of the fitted curve.
SMILES,"activity change, negative = inhibition",Potency
CCCSc1nc2c(c(=O)n(C)c(=O)n2C)n1Cc1ccccc1Cl,inactive: 10.9%,
COc1ccc(/C=C/C(=O)c2ccc(OC(C)C(=O)O)cc2)cc1O (centres undefined),,"inconclusive: 17.8 µM [inhibitor, single point]"
O=C(c1ccc2nc(-c3ccc(F)cc3)cn2c1)N1C[C@@H]2CCCN[C@@H]2C1,,active: 28.2 µM
COc1cccc(-c2nc(CC(=O)NC3CCN(Cc4ccccc4)CC3)cs2)c1,inactive: -11.9%,
Cc1noc2c(-c3ccc4c(ccn4C)c3)cc(-c3cccnc3)nc12,,active: 31.6 µM
O=C(CCNc1c(-c2cccc(F)c2)nc2cnccn12)NCc1ccc(Cl)cc1,,active: 28.2 µM
COc1ccc2[nH]c3c(c2c1)CCNC31CCN(Cc2scnc2C)CC1,,"inconclusive: 20 µM [inhibitor, single point]"
COc1ccccc1C(=O)Nc1nc(-c2ccc(Br)cc2)ns1,,"inconclusive: 2 µM [inhibitor, full curve, poor fit]"
CCc1ccc2nc(/N=C(\N)NC(=O)c3ccccc3)nc(C)c2c1,,"inconclusive: 35.5 µM [inhibitor, partial curve, poor fit]"
O=C(O)c1cn2ccnc(-c3ccc(F)cc3)c2n1,,"inconclusive: 35.5 µM [inhibitor, partial curve]"
O=C(O)CCC(=O)N1CCN(c2nc(-c3ccccc3)c3ccccc3n2)CC1,,"inconclusive: 28.2 µM [inhibitor, single point]"
CCc1ccc(-n2c(N3CCN(c4cccc(C)c4C)CC3)nc3ccccc3c2=O)cc1,,"inconclusive: 25.1 µM [inhibitor, partial curve, poor fit]"
O=C(NNC(=O)c1cc(Cl)ccc1O)c1cccs1,,"inconclusive: 22.4 µM [inhibitor, partial curve, poor fit]"
Cc1[nH]c2ccccc2c1/C=C(/C#N)C(=O)NCCO,inactive: -4.88%,
CCc1ccccc1NC(=O)CN1C(=O)NC2(CCOCC2)C1=O,inactive: 16.8%,
CC(C)N1CCC(N2CCCC(N3CCN(c4cccc(C(F)(F)F)c4)CC3)C2)CC1 (centres undefined),inactive: -23.4%,
O=C(NCc1cccnc1)c1cnc2ccccc2n1,inactive: -14.4%,
OC(c1cccc(C(F)(F)F)c1)c1nc(Nc2ccc(N3CCOCC3)cc2)n[nH]1 (centres undefined),,"inconclusive: 35.5 µM [inhibitor, partial curve, poor fit]"
CCOC(=O)c1ccc(N2CCN(C(C)=O)CC2)c(NC(=O)c2ccc(OC)cc2)c1,,"inconclusive: 39.8 µM [inhibitor, single point]"
O=C(CSc1ncc(-c2ccc(F)cc2)o1)Nc1cccc(Cl)c1,inactive: -22.7%,
CCOC(=O)c1cccc(NC(=O)c2ccc3snnc3c2)c1,,"inconclusive: 39.8 µM [inhibitor, single point]"
Cn1cnc(S(=O)(=O)N2CCCC(C(=O)NCCCN3CCCCCC3)CCNC(=O)CC2)c1 (centres undefined),,"inconclusive: 10 µM [inhibitor, partial curve, poor fit]"

SMILES,"activity change, negative = inhibition",Potency
Cc1csc2c(=O)sc(NC(=O)c3ccc(F)cc3Cl)nc12,,"inconclusive: 39.8 µM [inhibitor, single point]"
Cc1ccc(-c2csc(-c3nc(-c4cc(C)ccc4C)cs3)n2)c(C)c1,inactive: 19.2%,
O=C(OCC(=O)N1CCNC1=O)c1cc2c(F)cccc2s1,,"inconclusive: 35.5 µM [inhibitor, partial curve, poor fit]"
Cc1cn2nc(-c3nc(C4CCCN(C(=O)Cc5cccc(F)c5)C4)no3)cc2c(=O)[nH]1 (centres undefined),,"inconclusive: 8.91 µM [inhibitor, partial curve, poor fit]"
Cc1cc(C)cc(NC(=O)Nc2cccs2)c1,,"inconclusive: 31.6 µM [inhibitor, single point]"
COCC1CCN(C(=O)C2CCCN(C(=O)c3ccccc3)CCC(=O)NCC2)CC1 (centres undefined),inactive: -13.4%,
Cc1c(-c2ccc(F)cc2)[nH]c2ccc(CNC(=O)c3ccc(CO)o3)cc12,,active: 22.4 µM
COc1ccc(-c2ccnc(-c3nnc(C)n3C(C)C)c2)cc1OC,,active: 35.5 µM
CCn1c(-c2ccccc2)cc2ccccc21,,"inconclusive: 15.8 µM [inhibitor, partial curve, poor fit]"
O=C(NCCN1CCOCC1)c1ccc(-c2ccc(N3CCCCCC3)nc2)cc1,,active: 28.2 µM
CNC(=O)c1c(NC(=O)c2ccc(S(=O)(=O)N3CCCC(C)C3)cc2)sc2c1CCC2 (centres undefined),,"inconclusive: 1.78 µM [inhibitor, partial curve, poor fit]"
CC(=O)NCCNC(=O)CCc1nc(-c2ccccc2)c(-c2ccccc2)o1,,"inconclusive: 25.1 µM [inhibitor, partial curve, poor fit]"
CC1(c2ccccc2)N(Cc2ncccn2)C(=O)OC12CCN(CCCc1ccccc1)CC2 (centres undefined),,"inconclusive: 35.5 µM [inhibitor, single point]"
CCOc1cc(CNC(=O)c2ncoc2-c2cccc(C)c2)ccc1OC,inactive: -23.6%,
CCOc1ccc(NC(=O)CN(C)C(=O)Cn2c(=O)cnc3ccccc32)cc1OCC,inactive: 29.3%,
CC(=O)Nc1ccc(NC(=O)c2cc(-c3cc(C)cc(C)c3O)n[nH]2)cc1,,"inconclusive: 39.8 µM [inhibitor, single point]"
COC(=O)c1cccc(CN2C(=O)SC(Nc3ccc(Br)cc3)C2=O)c1 (centres undefined),,"inconclusive: 35.5 µM [inhibitor, single point]"
Cc1ccc(-c2cnc(-c3ccccc3C(=O)OCC(=O)N(CCC#N)CCC#N)o2)cc1,,"inconclusive: 22.4 µM [inhibitor, partial curve, poor fit]"
Cc1ccc(NC(=O)CSc2nc3ccc(NC(=O)c4ccco4)cc3s2)c(C)c1,,"inconclusive: 44.7 µM [inhibitor, single point]"
COc1ccccc1CNc1ccccc1C(=O)O,,"inconclusive: 25.1 µM [inhibitor, partial curve, poor fit]"
NNC(=O)c1oc2nc(-c3ccco3)cc(-c3ccco3)c2c1N,,"inconclusive: 14.1 µM [inhibitor, partial curve, poor fit]"
COc1ccc(-c2cc(C(F)(F)F)nc(NCCc3ccccc3)n2)cc1,,"inconclusive: 35.5 µM [inhibitor, partial curve, poor fit]"
